Data: PubChem BioAssay AID1347165 (National Center for Advancing Translational Sciences (NCATS), 2019)
Out of some 220,000 compounds screened, about 5,700 (2.6%) were called active. The shares of active, inactive and inconclusive entries below differ from those in the screen. The call rests on the fitted dose curve; in most records, active means well fitted inhibition curve with a large enough effect; inconclusive means small, poorly fitted or top-dose-only effect; inactive means no such curve, though single readings can be large or run the other way. A potency beside an inconclusive call is a rough fit, not a confirmed value.

molecular target: Lysine-specific demethylase 5B (Homo sapiens) (UniProt Q9UGL1); test: Primary screen for KDM5B Histone Demethylases FDH-coupled qHTS; settings: FDH-coupled NADH fluorescence (FDH is formaldehyde dehydrogenase); activity change, negative = inhibition: at 57.7 µM (top of the series) unless noted; further: nearly all actives have a fitted effect of over 70% in size; on activity change, negative = inhibition: 0% is about no effect
Chain of UniProt Q9UGL1 (Q9UGL1 whole entry, looked up): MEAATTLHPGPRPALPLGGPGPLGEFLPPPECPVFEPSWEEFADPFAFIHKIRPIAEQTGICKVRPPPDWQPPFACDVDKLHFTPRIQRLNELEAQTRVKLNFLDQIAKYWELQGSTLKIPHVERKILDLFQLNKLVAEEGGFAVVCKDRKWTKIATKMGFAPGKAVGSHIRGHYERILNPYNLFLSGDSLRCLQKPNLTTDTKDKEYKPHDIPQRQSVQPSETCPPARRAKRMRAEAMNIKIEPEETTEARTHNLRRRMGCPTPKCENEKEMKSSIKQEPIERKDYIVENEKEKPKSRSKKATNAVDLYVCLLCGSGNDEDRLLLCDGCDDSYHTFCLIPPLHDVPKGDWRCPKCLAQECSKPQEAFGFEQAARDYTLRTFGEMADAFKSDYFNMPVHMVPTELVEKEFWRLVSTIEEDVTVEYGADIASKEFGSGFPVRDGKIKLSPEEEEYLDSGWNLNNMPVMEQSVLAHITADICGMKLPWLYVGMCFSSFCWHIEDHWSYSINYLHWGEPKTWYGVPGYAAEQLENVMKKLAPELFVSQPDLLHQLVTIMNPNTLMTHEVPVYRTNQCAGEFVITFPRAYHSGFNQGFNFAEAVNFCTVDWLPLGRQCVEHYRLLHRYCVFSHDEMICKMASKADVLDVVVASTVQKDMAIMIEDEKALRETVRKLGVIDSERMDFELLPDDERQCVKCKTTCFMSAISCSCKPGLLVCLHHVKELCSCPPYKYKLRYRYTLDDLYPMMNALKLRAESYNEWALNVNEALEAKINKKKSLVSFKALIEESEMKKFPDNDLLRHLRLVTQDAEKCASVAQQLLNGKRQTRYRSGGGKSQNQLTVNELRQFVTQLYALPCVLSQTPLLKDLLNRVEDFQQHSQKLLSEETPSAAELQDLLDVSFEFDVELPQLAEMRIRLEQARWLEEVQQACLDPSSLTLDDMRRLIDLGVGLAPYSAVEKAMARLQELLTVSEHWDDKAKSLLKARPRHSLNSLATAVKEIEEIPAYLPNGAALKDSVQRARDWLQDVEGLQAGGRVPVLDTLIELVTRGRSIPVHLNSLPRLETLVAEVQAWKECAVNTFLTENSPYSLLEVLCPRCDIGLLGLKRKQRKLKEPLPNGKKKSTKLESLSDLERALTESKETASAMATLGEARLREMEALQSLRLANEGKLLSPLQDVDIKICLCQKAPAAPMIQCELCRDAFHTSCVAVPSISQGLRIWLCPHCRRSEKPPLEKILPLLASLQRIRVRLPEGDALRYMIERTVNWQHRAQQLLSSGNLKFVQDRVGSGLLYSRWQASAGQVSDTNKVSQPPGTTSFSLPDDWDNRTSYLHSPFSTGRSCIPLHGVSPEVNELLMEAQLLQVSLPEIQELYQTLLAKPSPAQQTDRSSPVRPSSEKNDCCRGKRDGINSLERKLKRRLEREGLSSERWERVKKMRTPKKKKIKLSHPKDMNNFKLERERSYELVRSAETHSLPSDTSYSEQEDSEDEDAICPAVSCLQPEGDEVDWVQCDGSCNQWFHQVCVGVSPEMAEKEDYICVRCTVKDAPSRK
In short: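 qHTS format, multiple compound concentrations. Buffer 50 mM HEPES pH 7.5/0.01% Tween-20; 200 nM KDM5BΔAP final; 10 min compound preincubation; substrate-mix levels 12.5 µM peptide, 25 µM α-KG, 0.25 mM NAD⁺; 30 min RT; ΔRFU.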
Potency means the concentration at half of the fitted maximal effect; tags describe the fitted curve by direction and shape.

Row | SMILES | Potency | activity change, negative = inhibition
1 | O=c1cc(CN2CCN(CCO)CC2)c2cc(Cl)c(O)cc2o1 | inconclusive: 22.4 µM [inhibitor, partial curve, poor fit] | 
2 | O=C(Cn1c(-c2ccccc2)cc2ccccc21)N1CCCC1 | inconclusive: 20 µM [inhibitor, partial curve, poor fit] | 
3 | CNC(=O)c1ccc(-c2nc(CN3CCN(C(=O)Nc4ccc(Cl)cc4)CC3)c(C)o2)cc1 | inconclusive: 11.2 µM [inhibitor, partial curve, poor fit] | 
4 | Cn1cc(-c2ccc3c(n2)CN(Cc2ccc(C(F)(F)F)cc2)C(=O)CO3)cn1 |  | inactive: -3.55% [at 86.2 µM]
5 | COc1ccc(-n2nc3c(N4CCCC(C(=O)NCc5ccc(C)cc5)C4)nnc(C)c3c2C)cc1 (configuration not stated) | inconclusive: 11.2 µM [inhibitor, partial curve, poor fit] | 
6 | O=C1c2nc3cc(-c4ccco4)[nH]n3c(=O)c2CN1C1CCCCC1 | inconclusive: 25.1 µM [inhibitor, partial curve, poor fit] | 
7 | O=C(Nc1ccc(Cl)cc1)C1CCN(c2cnc3ccccc3n2)CC1 | inconclusive: 1.78 µM [inhibitor, full curve, poor fit] | 
8 | CCCc1nn(C)c2c(=O)[nH]c(-c3cc(S(=O)(=O)Nc4cccc(C)c4)ccc3OCC)nc12 | inconclusive: 39.8 µM [inhibitor, single point] | 
9 | CCCNC(=O)c1cnn2c(C)c(Cc3c(C)cc(C)cc3C)c(C)nc12 | inconclusive: 1.78 µM [inhibitor, full curve, poor fit] | 
10 | CSCC(=O)N[C@H]1CCN2C(=O)c3cc(-c4cccs4)ccc3NC(=O)[C@H]12 | active: 35.5 µM | 
11 | Cc1ccc(SC(C)C(=O)NC2CCCCC2)cc1 (configuration not stated) |  | inactive: -0.574%
12 | COc1ccc(-c2cc(C(=O)N3CCN(C(=O)C(=O)N4CCOCC4)CC3)c3ccccc3n2)cc1 | inconclusive: 25.1 µM [inhibitor, partial curve, poor fit] | 
13 | Cc1ccc(C(C)C)c(OCC(=O)Nc2ccc(S(=O)(=O)Nc3onc(C)c3C)cc2)c1 |  | inconclusive: -39.6% [inhibitor]
14 | CC(Oc1cccc(Cl)c1)C(=O)NCCc1ccccn1 (configuration not stated) |  | inactive: 15.2%
15 | O=C(c1cnn2ccccc12)N1CCC(Cc2cccc(CO)c2)C1 (configuration not stated) | active: 28.2 µM | 
16 | Nc1cc(C(=O)OCc2cccc(F)c2)ccc1Cl | inconclusive: 31.6 µM [inhibitor, single point] | 
17 | CCOC(=O)c1ccc(NC(=O)C2CCCN(c3ccc(Sc4ccc(C)cc4)nn3)C2)cc1 (configuration not stated) | inconclusive: 28.2 µM [inhibitor, partial curve, poor fit] | 
18 | O=C(CSc1ncnc2nc[nH]c12)Nc1ccc(Cl)cc1 |  | inactive: 8.62%
19 | Cn1nc(C(=O)NCc2ccco2)c2ccccc2c1=O |  | inactive: 4.76%
20 | O=C(NCc1csc(-c2cccs2)n1)C1CCCCC1 | inconclusive: 28.2 µM [inhibitor, single point] | 
21 | c1ccc(-c2noc(CCNC3CCC4(CCNCC4)CC3)n2)nc1 | inconclusive: 8.91 µM [inhibitor, partial curve] | 
22 | CC(=O)NCCNc1nc2c(S(=O)(=O)c3ccc(C)c(C)c3)nnn2c2ccc(Cl)cc12 | inconclusive: 35.5 µM [inhibitor, partial curve, poor fit] | 
23 | Cc1cc(Br)ccc1NC(=O)CCS(=O)(=O)c1cccc2nsnc12 |  | inconclusive: -40.5% [inhibitor]

Row | SMILES | Potency | activity change, negative = inhibition
24 | Cn1c(=NC(=O)c2ccc3c(c2)OCCO3)sc2cc(S(C)(=O)=O)ccc21 | inconclusive: 1.58 µM [inhibitor, partial curve, poor fit] | 
25 | COc1ccc2c(C)c(CCC(=O)Nc3cc(C)cc(C)c3)c(=O)oc2c1 | inconclusive: 31.6 µM [inhibitor, partial curve, poor fit] | 
26 | Cc1cc(=O)oc2c(C)c(OCC(=O)NCCN(C)C)ccc12 | inconclusive: 22.4 µM [inhibitor, partial curve, poor fit] | 
27 | CN(C)C1(CNC(=O)COc2ccc3ccc(=O)oc3c2)CCCCC1 | inconclusive: 22.4 µM [inhibitor, partial curve, poor fit] | 
28 | O=C(/C=C/c1ccc(F)cc1)c1ccc(-c2ccccc2)cc1 |  | inactive: -15.2%
29 | COC(=O)[C@@H]1Cc2c([nH]c3ccccc23)[C@H]2C[C@H](NCCNC(C)=O)C[C@@H](c3ccc(C)cc3)N21 | active: 17.8 µM | 
30 | CCCNC(=O)c1ccc(-n2c(-c3ccccc3)cc3c2CCCCC3)cc1 | inconclusive: 3.16 µM [inhibitor, partial curve, poor fit] | 
31 | CCOc1cccc(CC(=O)Nc2ccc3nc(N4CCCCC4)cc(C)c3c2)c1OCC | inconclusive: 22.4 µM [inhibitor, partial curve, poor fit] | 
32 | O=C(NCc1ccccc1)c1ccc(NC(=O)c2nsc3ccccc23)cc1 | inconclusive: 44.7 µM [inhibitor, single point] | 
33 | Cc1nc(NCC(C)C)sc1C(=O)NCc1ccncc1 |  | inactive: 18.9%
34 | COc1ccc(CNC(=O)CCC(=O)N2CC3CCCN3c3ccccc32)cc1 (configuration not stated) | inconclusive: 28.2 µM [inhibitor, single point] | 
35 | CCc1nc(CN2C(=O)COc3ccc(S(=O)(=O)NC4CCCCCCC4)cc32)no1 |  | inactive: 20%
36 | Cc1ccc(C(=O)COc2ccc(C3CCCCC3)cc2)cc1 |  | inactive: 28.1%
37 | Cn1nccc1-c1cc2c(ccn2C)c(C(=O)NCc2cccnc2)n1 |  | inactive: -8280% [at 86.2 µM]
38 | CC1CCCCN1Cc1cc(=O)oc2cc(-c3ccccc3)c(O)cc12 (configuration not stated) | inconclusive: 31.6 µM [inhibitor, single point] | 
39 | CCN1CCN(c2cc(C)c3cc(NC(=O)c4ccc(C)c(C)c4)ccc3n2)CC1 | inconclusive: 39.8 µM [inhibitor, single point] | 
40 | CCNc1cc(N2CCC(CCC(=O)NCC3CC3)CC2)ncn1 |  | inactive: -9.57%
41 | CCCOc1ccc(NC(=O)Cc2ccc(OC)cc2)c2cccnc12 | inconclusive: 39.8 µM [inhibitor, single point] | 
42 | c1cnc2nc([C@H]3CCN(C4CCCCC4)C3)[nH]c2c1 | inconclusive: 22.4 µM [inhibitor, partial curve] | 
43 | CC(O)CNCc1ccc(-c2cccc(C(F)(F)F)c2)o1 (configuration not stated) |  | inactive: -19.2%
44 | CCOc1c(OC)cc(Br)c2cc(C(=O)O)[nH]c12 | inconclusive: 31.6 µM [inhibitor, partial curve, poor fit] | 
45 | NC(=O)CCNC(=O)C1=C[C@@H](NC(=O)c2cccs2)[C@@H](O)[C@H](O)C1 | inconclusive: 17.8 µM [inhibitor, partial curve, poor fit] | 
46 | O=C1CCN(S(=O)(=O)c2ccccc2)CCCN(C(=O)C2(c3ccccc3)CC2)CCN1 |  | inactive: -28.7%

Row | SMILES | Potency | activity change, negative = inhibition
47 | O=C(NCc1nnnn1-c1ccccc1)Nc1ccc2c(c1)OCO2 |  | inactive: -17%
48 | O=c1cc(CCl)[nH]c2nc3ccccc3n12 | inconclusive: 39.8 µM [inhibitor, single point] | 
49 | CCc1nc2c(c(-c3ccc(Cl)cc3)n1)CN(Cc1ccccn1)CC2 | inconclusive: 11.2 µM [inhibitor, partial curve] | 
50 | O/N=C/c1cccc(Cl)c1Cl |  | inactive: 14.9%
51 | C=CCNc1nc(C(=O)OCC(=O)c2ccc(C3CCCCC3)cc2)cs1 |  | inactive: -11.4%
52 | CN(C)c1ccc(CNC(=O)c2cc3cc(S(=O)(=O)N4CCCCC4)ccc3n2C)cc1 | inconclusive: 39.8 µM [inhibitor, single point] | 
53 | O=C(CN1C(=O)C2CCCCN2c2ccc(C(=O)N3CCCC3)cc21)NCc1cccc(Cl)c1 (configuration not stated) | inconclusive: 15.8 µM [inhibitor, partial curve, poor fit] | 
54 | Cn1c(=O)[nH]c(=O)c2c1nc(N1CCN(Cc3ccc(F)cc3)CC1)n2Cc1ccccc1 |  | inactive: 17.3%
55 | C/C(CCC(C)C)=N\Nc1nc2ccccc2[nH]1 | inconclusive: 35.5 µM [inhibitor, single point] | 
56 | COc1ccccc1N1CCN(c2csc3ccc(Cl)cc3c2=O)CC1 | inconclusive: 25.1 µM [inhibitor, partial curve, poor fit] | 
57 | CCNC(=O)c1ccc2c(c1)C1(CCCN(C)C1)CN2C (configuration not stated) | active: 31.6 µM | 
58 | O=S(=O)(NC[C@H]1O[C@@H](CO)[C@@H](O)[C@H]1N1CCOCC1)c1ccccc1 | inconclusive: 31.6 µM [inhibitor, partial curve, poor fit] | 
59 | CC(OC(=O)c1cc(=O)[nH]c2ccccc12)C(=O)N1CCCCCC1 (configuration not stated) | inconclusive: 39.8 µM [inhibitor, partial curve, poor fit] | 
60 | Cc1ccc(Cn2c(-c3ccccc3)nc3ccccc32)cc1 | inconclusive: 50.1 µM [inhibitor, single point] | 
61 | CC(C)C(=O)N1N=C(c2cccs2)CC1c1ccc2nccnc2c1 (configuration not stated) | inconclusive: 11.2 µM [inhibitor, partial curve, poor fit] | 
62 | CC(C)Oc1cccc(C2CC(=O)Nc3nc(N)sc32)c1 (configuration not stated) | inconclusive: 25.1 µM [inhibitor, partial curve, poor fit] | 
63 | CSc1ccc(CN2CCN(C/C=C/c3ccccc3)CC2)cc1 |  | inactive: -39.8%
64 | Cc1cccc(-n2nc(-c3c(C)nc4scc(CC(=O)NC5CCCCC5)n4c3=O)cc2C)c1C | active: 25.1 µM | 
65 | CN1c2cc(C(=O)Nc3cccc(C(F)(F)F)c3)ccc2C(=O)N2CCCCC21 (configuration not stated) | inconclusive: 25.1 µM [inhibitor, single point] | 
66 | O=C(/C=C/N1CCCCC1)c1ccc(Br)cc1 |  | inactive: 9.32%
67 | Cc1oc(C)c2c(=O)cc(-c3ccc4c(c3)OCO4)cc(OC(=O)c3ccccc3Br)c12 | inconclusive: 20 µM [inhibitor, partial curve, poor fit] | 
